# Measurements as given in ChEMBL document CHEMBL1961873, “Compounds: GSK PKIS; Assays: Nanosyn kinase panel” (2012).
# The entries are a selection whose mix differs from that of the whole data set.
# Experiments:
# [1] = target: Mitogen-activated protein kinase 3 (Homo sapiens) (UniProt P27361); conditions: at 1 µM;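 note: values are mean percent inhibition of MAPK3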
# [2] = target: SRSF protein kinase 3 (Homo sapiens) (UniProt Q9UPE1); conditions: at 0.1 µM
# [3] = target: SRSF protein kinase 3 (Homo sapiens) (UniProt Q9UPE1); conditions: at 1 µM
# [4] = target: Mitogen-activated protein kinase 11 (Homo sapiens) (UniProt Q15759); conditions: at 0.1 µM
# UniProt Q15759, sequence (Q15759 whole entry): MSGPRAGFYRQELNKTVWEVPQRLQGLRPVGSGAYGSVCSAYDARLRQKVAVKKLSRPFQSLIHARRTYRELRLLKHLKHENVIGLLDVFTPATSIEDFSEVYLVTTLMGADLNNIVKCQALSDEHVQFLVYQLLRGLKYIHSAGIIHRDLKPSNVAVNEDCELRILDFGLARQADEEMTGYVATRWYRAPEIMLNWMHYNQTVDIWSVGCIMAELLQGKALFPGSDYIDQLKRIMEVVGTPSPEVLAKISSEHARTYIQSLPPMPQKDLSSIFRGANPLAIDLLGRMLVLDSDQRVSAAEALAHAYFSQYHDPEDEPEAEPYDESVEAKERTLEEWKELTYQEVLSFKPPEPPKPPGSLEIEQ
# [5] = target: Mitogen-activated protein kinase 11 (Homo sapiens) (UniProt Q15759); conditions: at 1 µM
# [6] = target: T1, Mitogen-activated protein kinase 13 (Homo sapiens) (UniProt O15264); conditions: at 0.1 µM
# T1 sequence (whole entry): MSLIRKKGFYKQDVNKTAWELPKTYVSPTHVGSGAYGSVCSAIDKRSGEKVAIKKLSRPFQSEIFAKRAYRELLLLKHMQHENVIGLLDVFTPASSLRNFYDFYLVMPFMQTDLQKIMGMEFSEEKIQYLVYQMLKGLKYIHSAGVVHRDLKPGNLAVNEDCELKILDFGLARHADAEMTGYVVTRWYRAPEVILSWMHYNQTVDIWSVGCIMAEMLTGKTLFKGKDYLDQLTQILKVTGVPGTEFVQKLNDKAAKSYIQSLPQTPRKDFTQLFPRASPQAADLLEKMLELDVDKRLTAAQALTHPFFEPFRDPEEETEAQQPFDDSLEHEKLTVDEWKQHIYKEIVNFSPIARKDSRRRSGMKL
# [7] = target: T1, Mitogen-activated protein kinase 13 (Homo sapiens); conditions: at 1 µM
# [8] = target: T2, Mitogen-activated protein kinase 12 (Homo sapiens) (UniProt P53778); conditions: at 0.1 µM
# T2 sequence (whole entry): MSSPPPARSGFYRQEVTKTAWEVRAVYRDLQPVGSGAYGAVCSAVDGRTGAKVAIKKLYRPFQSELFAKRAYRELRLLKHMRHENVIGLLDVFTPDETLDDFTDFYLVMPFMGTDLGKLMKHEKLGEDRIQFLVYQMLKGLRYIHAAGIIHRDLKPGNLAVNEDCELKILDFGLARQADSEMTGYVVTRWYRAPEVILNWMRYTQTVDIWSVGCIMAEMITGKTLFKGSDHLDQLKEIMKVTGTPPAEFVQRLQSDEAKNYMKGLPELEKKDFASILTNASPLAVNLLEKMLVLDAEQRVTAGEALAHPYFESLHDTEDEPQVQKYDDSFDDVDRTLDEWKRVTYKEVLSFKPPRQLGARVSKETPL
# [9] = target: T2, Mitogen-activated protein kinase 12 (Homo sapiens); conditions: at 1 µM
# [10] = target: SRSF protein kinase 1 (Homo sapiens) (UniProt Q96SB4); conditions: at 0.1 µM
# UniProt Q96SB4, sequence (Q96SB4 whole entry, canonical isoform): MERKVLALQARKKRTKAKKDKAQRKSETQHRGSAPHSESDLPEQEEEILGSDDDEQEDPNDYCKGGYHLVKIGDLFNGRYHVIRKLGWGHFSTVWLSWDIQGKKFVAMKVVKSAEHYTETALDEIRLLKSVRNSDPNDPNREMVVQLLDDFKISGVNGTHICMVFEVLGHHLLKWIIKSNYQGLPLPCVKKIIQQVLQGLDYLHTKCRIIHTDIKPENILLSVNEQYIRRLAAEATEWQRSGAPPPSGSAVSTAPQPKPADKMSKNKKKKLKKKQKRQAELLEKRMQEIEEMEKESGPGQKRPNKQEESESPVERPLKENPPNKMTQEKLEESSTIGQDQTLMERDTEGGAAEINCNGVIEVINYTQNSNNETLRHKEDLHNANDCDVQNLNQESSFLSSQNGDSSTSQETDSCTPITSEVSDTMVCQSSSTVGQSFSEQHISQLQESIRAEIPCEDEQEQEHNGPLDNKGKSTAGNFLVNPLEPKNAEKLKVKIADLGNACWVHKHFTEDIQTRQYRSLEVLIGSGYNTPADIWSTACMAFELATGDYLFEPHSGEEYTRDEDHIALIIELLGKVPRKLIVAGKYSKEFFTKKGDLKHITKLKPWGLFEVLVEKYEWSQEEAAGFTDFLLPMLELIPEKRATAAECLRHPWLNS
# [11] = target: SRSF protein kinase 1 (Homo sapiens) (UniProt Q96SB4); conditions: at 1 µM
# [12] = target: Phosphatidylinositol 4,5-bisphosphate 3-kinase catalytic subunit alpha isoform (Homo sapiens) (UniProt P42336); conditions: at 0.1 µM
# UniProt P42336, sequence (P42336 whole entry, canonical isoform): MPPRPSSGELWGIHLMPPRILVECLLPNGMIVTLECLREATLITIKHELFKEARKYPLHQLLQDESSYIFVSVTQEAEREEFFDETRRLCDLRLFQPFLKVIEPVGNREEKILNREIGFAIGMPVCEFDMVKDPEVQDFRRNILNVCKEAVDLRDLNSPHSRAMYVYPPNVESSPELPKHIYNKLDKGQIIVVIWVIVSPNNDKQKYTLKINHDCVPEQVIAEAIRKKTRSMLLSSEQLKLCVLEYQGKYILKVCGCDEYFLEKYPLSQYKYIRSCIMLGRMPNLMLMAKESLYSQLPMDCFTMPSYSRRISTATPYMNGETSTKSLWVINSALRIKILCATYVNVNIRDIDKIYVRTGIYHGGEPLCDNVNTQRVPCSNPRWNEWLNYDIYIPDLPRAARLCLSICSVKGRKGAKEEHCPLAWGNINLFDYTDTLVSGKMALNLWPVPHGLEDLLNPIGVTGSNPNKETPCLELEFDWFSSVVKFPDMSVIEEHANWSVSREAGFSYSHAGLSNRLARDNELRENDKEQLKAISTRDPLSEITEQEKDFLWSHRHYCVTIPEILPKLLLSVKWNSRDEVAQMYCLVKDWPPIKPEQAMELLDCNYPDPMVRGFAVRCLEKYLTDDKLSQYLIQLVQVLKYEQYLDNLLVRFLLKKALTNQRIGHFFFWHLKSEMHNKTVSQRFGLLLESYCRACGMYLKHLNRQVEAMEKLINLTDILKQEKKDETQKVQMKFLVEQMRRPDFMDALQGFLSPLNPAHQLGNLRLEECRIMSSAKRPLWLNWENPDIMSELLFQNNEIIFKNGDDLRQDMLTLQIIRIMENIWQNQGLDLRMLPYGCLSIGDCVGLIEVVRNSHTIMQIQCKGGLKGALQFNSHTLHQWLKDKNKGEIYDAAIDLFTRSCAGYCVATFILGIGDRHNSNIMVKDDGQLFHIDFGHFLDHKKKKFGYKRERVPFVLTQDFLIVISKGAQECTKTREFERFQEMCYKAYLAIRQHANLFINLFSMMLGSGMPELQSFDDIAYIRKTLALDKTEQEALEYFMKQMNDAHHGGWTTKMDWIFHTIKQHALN
# [13] = target: Phosphatidylinositol 4,5-bisphosphate 3-kinase catalytic subunit alpha isoform (Homo sapiens) (UniProt P42336); conditions: at 1 µM
# [14] = target: T3, Phosphatidylinositol 4,5-bisphosphate 3-kinase catalytic subunit delta isoform (Homo sapiens) (UniProt O00329); conditions: at 0.1 µM
# T3 sequence (whole entry): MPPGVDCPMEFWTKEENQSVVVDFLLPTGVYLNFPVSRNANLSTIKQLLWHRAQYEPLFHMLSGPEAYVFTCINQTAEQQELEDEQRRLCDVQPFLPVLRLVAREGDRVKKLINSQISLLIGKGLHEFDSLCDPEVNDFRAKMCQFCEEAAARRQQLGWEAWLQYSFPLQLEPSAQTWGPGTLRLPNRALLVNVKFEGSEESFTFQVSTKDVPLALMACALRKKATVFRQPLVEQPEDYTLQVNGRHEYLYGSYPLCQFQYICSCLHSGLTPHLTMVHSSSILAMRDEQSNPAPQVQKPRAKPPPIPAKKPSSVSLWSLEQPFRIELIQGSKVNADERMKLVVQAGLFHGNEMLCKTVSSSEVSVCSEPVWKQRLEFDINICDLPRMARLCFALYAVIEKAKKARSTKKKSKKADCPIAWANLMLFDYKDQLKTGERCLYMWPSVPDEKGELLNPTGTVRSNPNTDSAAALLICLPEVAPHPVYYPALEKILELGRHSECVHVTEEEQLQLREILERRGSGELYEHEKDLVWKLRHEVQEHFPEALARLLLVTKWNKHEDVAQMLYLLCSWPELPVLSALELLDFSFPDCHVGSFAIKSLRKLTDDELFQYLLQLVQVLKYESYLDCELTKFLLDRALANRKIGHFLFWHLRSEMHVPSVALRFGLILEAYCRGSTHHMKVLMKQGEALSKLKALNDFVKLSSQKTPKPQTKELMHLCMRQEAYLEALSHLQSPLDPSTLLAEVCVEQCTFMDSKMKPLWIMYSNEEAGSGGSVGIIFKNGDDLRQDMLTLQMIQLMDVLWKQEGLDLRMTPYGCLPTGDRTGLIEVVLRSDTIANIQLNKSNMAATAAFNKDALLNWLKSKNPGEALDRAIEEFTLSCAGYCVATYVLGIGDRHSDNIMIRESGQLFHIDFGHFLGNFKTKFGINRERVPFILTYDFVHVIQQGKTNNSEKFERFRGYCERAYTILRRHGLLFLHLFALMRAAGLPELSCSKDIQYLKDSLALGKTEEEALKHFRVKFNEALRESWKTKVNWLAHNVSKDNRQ
# [15] = target: T3, Phosphatidylinositol 4,5-bisphosphate 3-kinase catalytic subunit delta isoform (Homo sapiens); conditions: at 1 µM
# [16] = target: Phosphatidylinositol 4-kinase beta (Homo sapiens) (UniProt Q9UBF8); conditions: at 1 µM
# UniProt Q9UBF8, sequence (Q9UBF8 whole entry, looked up): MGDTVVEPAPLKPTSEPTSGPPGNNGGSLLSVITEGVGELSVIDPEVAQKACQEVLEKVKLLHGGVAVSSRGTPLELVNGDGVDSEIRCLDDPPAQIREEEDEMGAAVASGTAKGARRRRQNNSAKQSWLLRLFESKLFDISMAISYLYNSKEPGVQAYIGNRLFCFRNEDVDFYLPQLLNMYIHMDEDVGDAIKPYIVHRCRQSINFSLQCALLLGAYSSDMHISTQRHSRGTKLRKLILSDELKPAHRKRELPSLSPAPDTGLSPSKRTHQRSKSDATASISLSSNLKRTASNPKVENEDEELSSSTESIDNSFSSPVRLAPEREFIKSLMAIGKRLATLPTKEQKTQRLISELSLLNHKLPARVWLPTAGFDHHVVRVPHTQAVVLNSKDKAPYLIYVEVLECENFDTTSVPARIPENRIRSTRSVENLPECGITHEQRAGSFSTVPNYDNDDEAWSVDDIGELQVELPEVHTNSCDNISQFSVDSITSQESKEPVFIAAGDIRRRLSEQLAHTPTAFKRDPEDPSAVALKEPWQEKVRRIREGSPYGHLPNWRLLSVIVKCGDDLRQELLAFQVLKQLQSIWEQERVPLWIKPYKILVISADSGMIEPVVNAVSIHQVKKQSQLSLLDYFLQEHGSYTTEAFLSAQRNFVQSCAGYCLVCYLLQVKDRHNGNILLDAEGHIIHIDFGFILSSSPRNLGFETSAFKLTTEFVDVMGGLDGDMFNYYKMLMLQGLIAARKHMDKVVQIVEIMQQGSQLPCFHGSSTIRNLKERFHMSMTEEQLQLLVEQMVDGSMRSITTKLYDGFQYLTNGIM
# [17] = target: Sphingosine kinase 1 (Homo sapiens) (UniProt Q9NYA1); conditions: at 0.1 µM;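 note: mean percent inhibition of SPHK1 activity, measured within the GSK PKIS screening panel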
# UniProt Q9NYA1, sequence (Q9NYA1 whole entry): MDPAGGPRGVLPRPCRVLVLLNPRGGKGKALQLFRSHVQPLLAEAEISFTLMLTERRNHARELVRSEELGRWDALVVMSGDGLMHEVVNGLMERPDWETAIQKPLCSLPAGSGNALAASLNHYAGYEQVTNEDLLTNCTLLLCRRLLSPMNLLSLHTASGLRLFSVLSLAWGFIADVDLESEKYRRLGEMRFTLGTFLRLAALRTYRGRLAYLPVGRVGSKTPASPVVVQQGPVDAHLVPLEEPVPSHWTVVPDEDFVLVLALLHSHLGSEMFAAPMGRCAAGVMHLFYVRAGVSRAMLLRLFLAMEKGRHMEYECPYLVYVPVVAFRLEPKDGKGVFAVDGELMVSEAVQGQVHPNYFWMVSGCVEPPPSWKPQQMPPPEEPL
# [18] = target: Phosphatidylinositol 4-kinase beta (Homo sapiens) (UniProt Q9UBF8); conditions: at 0.1 µM
# UniProt P27361, sequence (P27361 whole entry): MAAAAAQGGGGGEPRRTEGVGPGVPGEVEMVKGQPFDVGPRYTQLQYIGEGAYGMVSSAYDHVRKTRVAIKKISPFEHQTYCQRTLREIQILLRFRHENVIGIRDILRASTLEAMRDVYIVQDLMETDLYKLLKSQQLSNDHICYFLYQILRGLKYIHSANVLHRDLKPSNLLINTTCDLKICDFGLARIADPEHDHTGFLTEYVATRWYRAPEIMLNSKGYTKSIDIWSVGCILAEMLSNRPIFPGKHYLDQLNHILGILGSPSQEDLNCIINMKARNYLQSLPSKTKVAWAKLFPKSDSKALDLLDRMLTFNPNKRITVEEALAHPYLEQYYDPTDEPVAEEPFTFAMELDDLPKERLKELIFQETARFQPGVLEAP
# UniProt Q9UPE1, sequence (Q9UPE1 whole entry): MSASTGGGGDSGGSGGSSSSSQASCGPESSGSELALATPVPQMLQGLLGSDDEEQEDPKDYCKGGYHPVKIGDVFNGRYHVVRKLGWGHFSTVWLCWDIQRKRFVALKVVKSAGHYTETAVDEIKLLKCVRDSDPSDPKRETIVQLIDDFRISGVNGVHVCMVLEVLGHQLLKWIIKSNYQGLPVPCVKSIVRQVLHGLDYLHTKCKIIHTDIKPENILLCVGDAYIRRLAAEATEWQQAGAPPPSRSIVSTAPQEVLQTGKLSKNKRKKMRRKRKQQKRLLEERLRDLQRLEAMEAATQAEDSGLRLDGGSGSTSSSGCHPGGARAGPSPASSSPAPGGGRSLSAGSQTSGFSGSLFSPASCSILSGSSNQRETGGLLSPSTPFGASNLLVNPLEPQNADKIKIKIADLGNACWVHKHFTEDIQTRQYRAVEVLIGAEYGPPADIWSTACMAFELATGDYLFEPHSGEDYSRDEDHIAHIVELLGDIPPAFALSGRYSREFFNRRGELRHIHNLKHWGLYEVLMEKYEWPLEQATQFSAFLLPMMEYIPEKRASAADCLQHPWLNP
Compound,inhibition [1] [%],inhibition [2] [%],inhibition [3] [%],inhibition [4] [%],inhibition [5] [%],inhibition [6] [%],inhibition [7] [%],inhibition [8] [%],inhibition [9] [%],inhibition [10] [%],inhibition [11] [%],inhibition [12] [%],inhibition [13] [%],inhibition [14] [%],inhibition [15] [%],inhibition [16] [%],inhibition [17] [%],inhibition [18] [%]
NC(=O)CCc1ccccc1Oc1nccc(-c2c(-c3ccc(F)cc3)ncn2C2CCNCC2)n1,-0.69,0.1,0,5.28,30.4,-1.72,-2.56,-2.24,-0.59,1.55,0.9,-1.58,-0.54,-1.22,1.73,4.03,1.89,
CS(=O)(=O)c1ccc(Oc2nccc(-c3c(-c4ccc(F)cc4)ncn3C3CCNCC3)n2)cc1,5.63,-2.24,0.18,4.92,15.5,4.98,3.28,3.56,3.91,-2.72,-3.01,4.89,9.97,0.72,6.19,-3.67,-0.26,0.13
Fc1ccc(-c2ncn(C3CCNCC3)c2-c2ccnc(Oc3cccc(C(F)(F)F)c3)n2)cc1,5.11,-2.9,-0.93,5.28,20.2,5.74,4.72,6.39,3.95,-2.32,-2.22,5.7,11.4,2.47,8.26,,0.26,-4.78
CC(C)(C)c1ccc(Oc2nccc(-c3c(-c4ccc(F)cc4)ncn3C3CCNCC3)n2)cc1,11.1,-1.69,-0.95,47.9,,4.42,3.59,3.38,4.32,-3.4,-2.03,2.87,1.62,1.14,5.35,1.52,5.13,-0.74
